The text below walks through data of the supplement of paper PMC10338343.

± gives the standard deviation. Only a part is listed here, and it is no random draw.
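Note: 1 nM active piRISC with 0.1 nM target library at 33 °C single turnover.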

This assay deals with MIWI (PIWIL1) piRISC loaded with piRNA #1 (30 nt). In words: pre-steady-state target cleavage rate (min^-1); MIWI and MILI are mouse PIWI proteins and EfPiwi is from a freshwater sponge; tags in brackets are library labels; higher = faster piRNA-guided slicing of the target. Particulars: guide: piRNA #1 5'p-UGAGGUAGUAGGUUGUAUAGUAUCCAGAGG; auxiliary factor: 500 nM mouse GTSF1. A digest of the protocol:
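Reactions were run for 0–8 or 0–960 min at 33 °C in HEPES–potassium acetate buffer, combining 1 nM active affinity-purified piRISC with one synthetic guide, […] transcribed, DNA-blocked target RNA library and, in some cases, 500 nM GTSF1 partner protein. Sequencing of uncleaved targets followed, with normalisation to depth and to weakly complementary targets. Three trials were pooled, k3 was capped at 0.0001 min^-1, and the pre-steady-state cleavage rate was taken from a burst-and-steady-state fit.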
GGAGACCUAUGAUAUCAACGUACAACCUCA: the “pre-steady-state target cleavage rate” value was less than 0.0001.

Regarding CCUCUCGAUACUAUACAACGUACUACCUCA, the “pre-steady-state target cleavage rate” value worked out at 1.41 ± 0.076.

On to GGAGUGGAAACUAUUCAACCUACUACCUCA, for which the “pre-steady-state target cleavage rate” value was 1.3 ± 0.085.

For the sequence GGUGUGGAUACUAUACAACCUACUACCACA, the “pre-steady-state target cleavage rate” value amounted to 0.454 ± 0.048.

Consider GGAGACCUAUGAUAACAACCUCCUACCUCA, for which the “pre-steady-state target cleavage rate” value is 0.00268 ± 0.0026.

Turning to GGAGAGGAUACUUUUCAACCUACUACCUCA, the “pre-steady-state target cleavage rate” value stood at 1.18 ± 0.076.

GGUCUGGAUACUAAACAACCUACUACGUCA: the “pre-steady-state target cleavage rate” value was determined as 0.75 ± 0.067.

As for GGAGACGAAACUAUACAACCUACUACCACA, the “pre-steady-state target cleavage rate” value is 0.989 ± 0.083.

On to GGAGAGGAUACUAUACAACCUACUCCUCA, for which the “pre-steady-state target cleavage rate” value was 0.00267 ± 0.0025.

Consider CCAGUGGAUACUAUACAACCUACUACCUCA, for which the “pre-steady-state target cleavage rate” value worked out at 2.01 ± 0.11.

For GGACUGGAUAGAUUACAACCUACUACCUCA, the “pre-steady-state target cleavage rate” value was determined as 0.0509 ± 0.0099.

For the sequence GGAGAGGAUACUAUACAACCUACUUGCUCA, the “pre-steady-state target cleavage rate” value was 0.0895 ± 0.025.

GCUCUGGAUAGUUUACAACCUACUACCUCA: the “pre-steady-state target cleavage rate” value worked out at 0.904 ± 0.04.

For GCUGUGGAUAGUAUACAACCUACUACCUCA, the “pre-steady-state target cleavage rate” value amounted to 0.599 ± 0.049.

GGAGACCUAUGAUAUGUUCCUAUCUACCUCA: the “pre-steady-state target cleavage rate” value was less than 0.0001.

Turning to GGAGACCAUACUAUACAACCUACUACGCUCA, the “pre-steady-state target cleavage rate” value is 1.43 ± 0.074.

Consider GGAGACCUAUCUAUACAACCUACAACCACA, for which the “pre-steady-state target cleavage rate” value was 0.115 ± 0.019.

GGAGACCGUACUAUACAACCUACUACCUCA: the “pre-steady-state target cleavage rate” value turned out to be 1.49 ± 0.12.

As to GGAGUGGAUACUAUACAACCUACUAUCUCA, the “pre-steady-state target cleavage rate” value was found to be 0.972 ± 0.1.

CCUCUGGAUACAAUACAACCUACUACCUCA: the “pre-steady-state target cleavage rate” value came to 1.92 ± 0.12.

On to GGAGACCAUACUAGUACAACCUACUACCUCA, for which the “pre-steady-state target cleavage rate” value was determined as 0.58 ± 0.064.

Consider GGACUGGAUACUAUACAAGGUACUACCUCA, for which the “pre-steady-state target cleavage rate” value was 0.331 ± 0.036.

For GGUCUGGAAACUUUACAACCUACUACCUCA, the “pre-steady-state target cleavage rate” value stood at 1.43 ± 0.11.

As for GGACUGGAUACAUACAACCUACUACCUCA, the “pre-steady-state target cleavage rate” value is 1.25 ± 0.13.

GGAGACCUUACUAUACAACCUACAACGUCA: the “pre-steady-state target cleavage rate” value stood at 0.288 ± 0.046.

On to GGACUGGUAUACUAUACAACCUACUACCUCA, for which the “pre-steady-state target cleavage rate” value turned out to be 1.68 ± 0.14.

In the case of GCUCUGGAUACUAUACAACCAACUUCCUCA, the “pre-steady-state target cleavage rate” value stood at 0.04 ± 0.007.

Turning to CCUCUGGAAACUAUACUACCUACUACCUCA, the “pre-steady-state target cleavage rate” value was determined as 1.74 ± 0.11.

In the case of GGAGACCUAACUAUUCAACCUAGUACCUCA, the “pre-steady-state target cleavage rate” value turned out to be 0.154 ± 0.026.

For the sequence GGAGACGAUACUAUAGAACCUACUACCUGA, the “pre-steady-state target cleavage rate” value was 0.296 ± 0.063.

As to GGAGACCUAACUAUACUACCUACUACCACA, the “pre-steady-state target cleavage rate” value amounted to 0.052 ± 0.012.

On to GGAGACCUAUCUAUUGAACCUACUACCUCA, for which the “pre-steady-state target cleavage rate” value was determined as 0.00409 ± 0.002.

Regarding GGAGACCUAUGAUAUGUUCCUUGUACCUCA, the “pre-steady-state target cleavage rate” value is less than 0.0001.

Take GCUCUGGAUACUUUACAACCUACUAGCUCA: the “pre-steady-state target cleavage rate” value was 0.805 ± 0.073.

Take GGAGACCAUACUAUACAACCUACUACACUCA: the “pre-steady-state target cleavage rate” value amounted to 1.08 ± 0.083.

Consider GGAGACGAAACUAUACAACCUACAACCUCA, for which the “pre-steady-state target cleavage rate” value is 0.572 ± 0.064.

Take GGAGACCAUACUAUACAAGCUACUUCCUCA: the “pre-steady-state target cleavage rate” value was determined as 0.678 ± 0.038.

Regarding “GCUCUGGAUACUAUACAACCUACUAGGAGA [g6:g29:cont:t1A]”, the “pre-steady-state target cleavage rate” value is 0.0532 ± 0.012.

For the sequence GGAGACCUAACUAUACAACCUACCACCUCA, the “pre-steady-state target cleavage rate” value amounted to 0.623 ± 0.062.

Regarding GGAGACCUAUGAUAACAACCUACACCUCA, the “pre-steady-state target cleavage rate” value is less than 0.0001.
